Assay results published in the supplement of paper PMC10126150.
Sequences with one replicate were seen in a single cluster, so their values are uncertain.

Tested on: ATP
Assay: switch fluorescence ratio, 500 uM ATP over buffer (Cy3 cluster intensity, sum of 5 cycles each) (fold (ratio)); higher = stronger signal-on switching upon ATP binding; sequences stand for … in TCGTCGGCAGCGTCAGATGTGTATAAGAGACAGTTTTTTTTTTTTTTTTTTTTTTTTT…TC
Settings: aptamer strand: ATP DNA aptamer (quencher-CACCTGGGGGAGTATTGCGGAGGAAGG + anchor), 100 nM annealed; ATP concentration: 500 uM; one replicate
Method in brief: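 Switching-strand clusters labelled with Cy3 on a modified Illumina MiSeq flow-cell were annealed to 100 nM quencher-labelled ATP aptamer, imaged in selection buffer, and re-imaged after 15 min with 500 uM ATP at 22 °C. This was done over five cycles with NaOH stripping and re-annealing in between. The fluorescence ratio is summed target-cycle over summed buffer-cycle Cy3 intensity per cluster, averaged per switch-domain sequence, excluding clusters outside 100-1000 RFU.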
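Also: ATP exposure 15 min at 22 °C before imaging.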

Row | Sequence | switch fluorescence ratio
1 | GTAGTATTTA | 0.994
2 | GGTGGAGAAA | 0.988
3 | TGCCAGGGTA | 1.08
4 | TCGGCACTTG | 0.979
5 | AGGCCGCTCC | 1.09
6 | GCGTTGCAAC | 1.03
7 | CGCTATATC | 4.07
8 | CGATTACTAT | 0.998
9 | TAAATACGTT | 0.987
10 | AAATTGGTAG | 0.986
11 | ATTTTGAGCG | 0.983
12 | AGGGCTTTTC | 0.965
13 | CCAGTCGGGT | 0.996
14 | GATGCTGTGT | 1.05
15 | CTGATAAA | 0.967
16 | AAAGATCATA | 0.995
17 | CAAAATGAGA | 0.984
18 | CAGTCTACTT | 0.983
19 | AATGTTTCAT | 0.97
20 | AGAGCCGTGG | 0.924
21 | AGTCATCTCA | 0.925
22 | AGAGTATAA | 0.989
23 | AGCGATAAGG | 1.02

Row | Sequence | switch fluorescence ratio
24 | TCTTTCGTGG | 1.01
25 | TGCTTAGATT | 0.987
26 | CTAGACGGAT | 1.04
27 | TGTGAGGA | 1.04
28 | GGCGAAGGCA | 0.979
29 | CAGCTTCTT | 0.974
30 | ATACATTTTA | 1.03
31 | GGGGTTAAG | 1.01
32 | CGGGCTCGCA | 0.989
33 | CTTAAAGCTA | 1.07
34 | AATGGTTAGG | 0.97
35 | TTGGGCGTGA | 0.994
36 | TATGTTCGTA | 0.978
37 | ATCCCCGTCT | 0.985
38 | TTCGGATAGC | 1.01
39 | GCAGGGTTCG | 1.01
40 | AGTTAAGGGG | 0.968
41 | ACAATCCGAA | 1.01
42 | CGTCAAGGTC | 1
43 | TTTGTTGCCG | 1.14
44 | GGGGCACGTA | 1.03
45 | CACTTGGGAC | 1.02
46 | CGTTGAGAGT | 1

Row | Sequence | switch fluorescence ratio
47 | CTCAATTGCT | 1.02
48 | CATGGTAATG | 0.937
49 | TCCGTGTCTC | 1.22
50 | GCCGGTAAAC | 0.998
51 | CTCTAGCCAA | 2.46
52 | CCTTTGACCG | 1.09
53 | GGCTGGTTA | 1.04
54 | TCGTTTTACG | 1.03
55 | AATTAGTTAC | 1.02
56 | AGGGTCCTC | 1.07
57 | GCCTGCAGGC | 0.992
58 | TTGCGCAGGT | 1.05
59 | TTGTCTGTTT | 0.989
60 | CTAACGACGA | 1.26
61 | CTTGCTCCAC | 3.56
62 | CACCTACCTG | 1.3
63 | CCCCACGAAC | 4.47
64 | GAGATGACCC | 1.01
65 | TGTCCGCGGA | 2.17
66 | GGTTTTTTCG | 1.04
67 | GGACGTAGAG | 0.994
68 | TCGTAGCCTA | 1.08
69 | AACCTTCCT | 2.02

Row | Sequence | switch fluorescence ratio
70 | GAAACTATGC | 1.09
71 | ACAATCCC | 1.18
72 | CGCTTAAGAT | 1.02
73 | GGCAGAATCC | 1.01
74 | ATTGACGGAA | 1.03
75 | GCCGGGGTCC | 0.993
76 | TTTACTAATT | 0.999
77 | TCACATCTGT | 1.01
78 | GAGTGCCTGA | 1
79 | GGTTACCCTT | 0.965
80 | TTGCCCCTTG | 1.02
81 | ACGAAATTCT | 1.13
82 | AGGTTCGAGA | 0.998
83 | TGAGGGGCCC | 1.12
84 | GTCACCTCTG | 1.01
85 | TTGTTCATCA | 1.03
86 | AGGACTTATT | 1.02
87 | TTTTAGCGGA | 1.01
88 | ACTGATCCC | 1.03
89 | AGTAACGTG | 1.02
90 | GTCGAAGGAC | 0.984
91 | AACGTACTCG | 1.53
92 | TTCTAGGAAA | 0.978

Row | Sequence | switch fluorescence ratio
93 | TGGACCCTCC | 1.19
94 | AATATCCGAG | 1.04
95 | GTAGTCGCG | 1.05
96 | ATGCTTTGGT | 1.02
97 | TTCCCGGGT | 1.01
98 | TAGGAGAGC | 1.08
99 | CTGCAGCTTG | 1.05
100 | ATCGTTCCGT | 1.01
101 | ACAGCTGTGA | 1.02
102 | TTAAGAGGCT | 1.04
103 | CATTAGGCGT | 0.96
104 | TTGGTAAACA | 0.989
105 | GCACGTGCTG | 0.988
106 | TCTACAACCG | 1.07
107 | AGTCCTTCTT | 1.01
108 | CAGTTGTGTC | 1.03
109 | GTAGCAAAGT | 1.58
110 | TCAATGAGG | 0.989
111 | CCGTATTCGG | 1.05
112 | TACTCTTTT | 0.993
113 | ACTCGATTT | 0.969
114 | TGAACTATCA | 0.991
115 | AATGATGAC | 1.06

Row | Sequence | switch fluorescence ratio
116 | TTTAAGTGAA | 1.01
117 | TTAGGCTCAT | 1.02
118 | GTAATTCTT | 0.948
119 | TCGTACCTTC | 1.29
120 | GTGGAAGTTA | 1
121 | CAGGATTCTC | 0.986
122 | TTCGTCTTGT | 0.952
123 | GATATGCTGA | 1
124 | GGTTGTGAGG | 0.958
125 | AGACTCATTT | 1
126 | TGGGGCGCAG | 0.991
127 | TTAATGCGT | 0.984
128 | TCGTATTGTT | 0.951
129 | GGCAGCACGA | 1.1
130 | CCCGCGTTGT | 1.18
131 | GGACACGGAA | 1.12
132 | CCTGACATCC | 1.42
133 | TGTGTACCCG | 1.01
134 | ATATGTCTCA | 0.989
135 | TTCGCGCAAA | 1.27
136 | CACGTTTTGT | 0.959
137 | ACGAGGCTGT | 1.39
138 | TACCGTGATG | 1

Row | Sequence | switch fluorescence ratio
139 | GAGCACTGTG | 1.03
140 | TTAGATTCAG | 0.956
141 | GAGGGGGAGT | 1.01
142 | CTTCTGATT | 1.04
143 | TGTCGTGCGC | 0.995
144 | GGGTTACCGC | 0.997
145 | TGAGAAATGA | 0.996
146 | TGATTCAGCC | 1.02
147 | TTAGCACC | 1.06
148 | TAGGAAATGG | 1.01
149 | TATCCCAGCT | 1.02
150 | GACAGCTTTA | 1.05
151 | AGACCCAGTT | 0.986
152 | CAAAACGCCC | 1.13
153 | ATAGAGTAGT | 0.994
154 | GAGTCCAGGT | 2.09
155 | TCAGGAGTTA | 0.982
156 | CTCACATTTG | 1
157 | TGACCGGGC | 1.05
158 | GGATAGTACG | 1.02
